According to the supplement of paper PMC11417369:
This is one part of the list.

Each sequence was assayed on PfSIP2 AP2 domain 1 (GST-tagged) (assay: gcPBM binding intensity (ln(normalized median fluorescence intensity)); higher = stronger DNA binding).
Summary of the method: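 Binding intensity is defined as the maximum Masliner-normalised natural-log median intensity across replicate spots for either probe orientation. It was measured on an Agilent 4 × 180k array of primer-extended double-stranded 36-bp intergenic genomic probes and negative controls, to which GST-tagged P. falciparum DNA-binding domains made in E. coli were applied for 1 h in 1× PBS with 1% milk, 0.2 mg/ml BSA, 0.5% salmon testes DNA and 0.03% Triton X-100. Detection was by Alexa488 anti-GST antibody and scanning at 488 nm.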

| Sequence | gcPBM binding intensity (ln) |
| --- | --- |
| AAGAAATAAATACATACACACATATATATATATATA [CACACA_site3362] | 9.51 |
| ATAAGTAATATAATATGTACATATATATATATATAT [XGTACX_site3818] | 9.25 |
| TATATATTGTTATAATGTACATAATATTTTATCTGC [XGTACX_site4983] | 7.08 |
| ATGCAAAATAAAGAAGCACACAAAAATGAAATATAT [CACACA_site9217] | 7.2 |
| AGAATAATTTTATCGGTACACACTGTATGCATAATA [CACACA_site374] | 7.08 |
| GGAAATTTCAATATTTGTACATATATATATATATAT [XGTACX_site3222] | 9.79 |
| AACAAAAGTAATTAAAAACAATACAAACATATGTTT [XGTACX_negctrl_site220] | 6.76 |
| TGGATAAAATAAAAATGTACTTAACATTTATATTTT [XGTACX_site712] | 6.83 |
| AAATAATATAAACATACACACACACCGATATATATA [CACACA_site8945] | 7.42 |
| TTTCTAATTTATATCACACACATATAAATATAGTAA [CACACA_site6210] | 7.19 |
| ATCATTCAAAAATGCTGTACTAGGGGAAAACGTGTT [XGTACX_site7168] | 6.89 |
| ATATATAGGTTCCCTTTTCTTTTTTTTTTTTTTTTT [CACACA_negctrl_site1159] | 7.71 |
| ATGTATGAAAAAATGTGTACATAATTTTTTTTTTTT [XGTACX_site5444] | 7.5 |
| TTAAATGTTGGTTGTAGTACTCCATATGTTGTTTTA [XGTACX_site5312] | 7.04 |
| CTTATGTGCATACCTACACACTTACATATATATATA [CACACA_site8973] | 9.51 |
| TTTGGAATATTAATTGTGCACTTAAAAAGTTAATTA | 10 |
| TATATATATATAAGATGTACCCTTTGAAATAATAAT [XGTACX_site7215] | 8.92 |
| TGATACTGCAAAAAATATAAAAAAATAATAAAATAA [CACACA_negctrl_site791] | 6.8 |
| AACATAAAACGTAATATATTACAAATATAAACAATC [CACACA_negctrl_site1675] | 7.29 |
| TTACCATTTGAAAATTCACACACTTTATTTTGTTAT [CACACA_site3799] | 6.93 |
| ATATATATATATATATGTACATATTTTATAACTGTA [XGTACX_site5395] | 9.2 |
| ATTTATACATATAAACGTACATACATATATAATATT [XGTACX_site2969] | 7.2 |

| Sequence | gcPBM binding intensity (ln) |
| --- | --- |
| TGAACAAAAAAAAATTGTACTTTTTTTTTAATATTT [XGTACX_site7172] | 7.15 |
| TTTCTTCGAAATAGAACACTTGTGCAAAATAAGCAA [XGTACX_negctrl_site361] | 7.26 |
| AAAAAAAACAATCTCATACACACTAGGGATTAATTA [CACACA_site1776] | 6.63 |
| ATATATACTATAATAGTGCATTAAAAAAGTAAAAAT | 8.63 |
| TAAAGAGAAATATGTACATGCGAAAATGCCTTAAAT [TGCATGCA_site1050] | 7.2 |
| AGACAATAATATAATCGTACAATAAATAAAATAAAA [XGTACX_site5231] | 6.9 |
| AAATATAATATACAAAGTACTTTTTCATCTTATATA [XGTACX_site8771] | 6.84 |
| AAAATAATCTTTTGATTGCACTGTTACATTTTTTCT [GTGCAC_site9563] | 7.67 |
| TTTATGTATTTTTATGCACACATGCGTGGCTTATAT [CACACA_site4374] | 7.17 |
| TACGGACATACTAACGGACACACGTAAGAAAAAAAA [CACACA_site602] | 7.14 |
| TTTATAATAAAATTTTTACACACTTTAAAAAAAAAA [CACACA_site8070] | 6.99 |
| TTTTTTTCAATATTTGCACACGATTATAATATTTAA [CACACA_site2237] | 7.24 |
| AATATTCGTAATTGATGTACTTGTAATTCATACATT [XGTACX_site8314] | 6.78 |
| AATAAATATCTGTACACACACAAATAAATACATATC [CACACA_site5108] | 7.19 |
| TATAATAAAAATAATACACACATATATAGCAATCGT [CACACA_site3241] | 7.27 |
| CAGAATAATTTTATCGGTACACACTGTATGCATAAT [XGTACX_site736] | 7.15 |
| TTCTGTATAATATAAAAACAAAAATTAAATTAAAAC [CACACA_negctrl_site81] | 7.09 |
| CATAAAATATAAAACACACACACATATATATATATA [CACACA_site223] | 9.29 |
| AAATTTTTTATTCTAATTAATATTTACACAATATAT [TGCATGCA_negctrl_site376] | 6.76 |
| TTCCATGTAGGACATGCATGCAGTTTTTAAAATATT [TGCATGCA_site481] | 7.03 |
| TATTATATAAATATACGTACATATACTAACCTTTTA [XGTACX_site6317] | 7.23 |
| TATGACATATCCTGTAGTACAACGTATATATAAGAT [XGTACX_site1327] | 7.11 |
